In PubChem BioAssay AID493131 (Broad Institute, 2011):
The whole screen tested about 340,000 compounds, of which about 3,300 (0.97%) were called active. Inconclusive means that the source gave no clear call. Such entries were picked first, then a sample of the others.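 The calls were made as follows: active = mean activation above about 17%, with every replicate also reaching it (limit read from the data, passing the limit was not always enough); inconclusive = only one of the two conditions met; inactive = the rest.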

The compounds below were run against Protein FosB (Mus musculus) (UniProt P13346) (assay: enhancers of mouse delta FosB DNA binding – biochemical, fluorescence polarization, TAMRA-CDK5 oligo, single point, primary screen (AID 493131;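 also: fluorescence polarization rise as delta FosB binds a TAMRA Cdk5 AP-1 oligo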)). Settings: purified delta FosB, at 25 µM, stronger effect = higher value, percent of positive-control signal above neutral wells.
UniProt P13346, sequence (P13346 whole entry, looked up): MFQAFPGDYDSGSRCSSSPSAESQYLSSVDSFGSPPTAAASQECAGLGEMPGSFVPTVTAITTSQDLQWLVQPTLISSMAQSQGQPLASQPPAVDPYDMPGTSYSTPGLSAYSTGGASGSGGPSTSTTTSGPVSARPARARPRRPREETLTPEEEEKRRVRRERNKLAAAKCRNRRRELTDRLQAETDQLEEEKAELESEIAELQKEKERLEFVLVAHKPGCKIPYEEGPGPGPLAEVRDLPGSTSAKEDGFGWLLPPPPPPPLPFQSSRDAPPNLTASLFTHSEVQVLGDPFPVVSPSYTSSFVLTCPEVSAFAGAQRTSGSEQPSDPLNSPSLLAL

Compound	activation
O=C(/C=C/c1cn(CC(O)CN2CCCCC2)c2ccccc12)c1ccccc1 (centres undefined)	inconclusive: 16.9%
CCOc1ccc(NC(=S)N2CCC(C(O)(c3ccccc3)c3ccccc3)CC2)cc1	inconclusive: 20.1%
C/C=C(\C)c1nnc(NC(=O)c2ccco2)s1	inconclusive: 16.7%
Cc1ccc(Nc2nc(Nc3ccc(C)cc3)nc(SC3=NCCS3)n2)cc1	active: 25.6%
COc1cc(OC)c(NC(=O)CNC(=O)Cn2ccc3ccccc3c2=O)cc1Cl	inconclusive: 19.1%
COc1cccc(/C=N/NC(=O)CN(C2=NS(=O)(=O)c3ccccc32)c2ccccc2)c1	active: 21.7%
Cc1ccc(-c2csc(NC(=S)NC(=O)/C=C/c3ccco3)n2)cc1	inactive: 0.24%
N#Cc1ccsc1NC(=O)COC(=O)c1cc2ccccc2cc1O	inconclusive: 16.9%
CCOC(=O)c1ccc(N2Cc3ccccc3C2)cc1O	inactive: -11.4%
CCN1CCc2c(sc(NC(=O)c3ccc(C(=O)c4ccccc4)cc3)c2C(N)=O)C1	inconclusive: 21.1%
CC(C)c1nc2cc(C(=O)N(C)C3CCOCC3)ccc2o1	inactive: -3.94%
COC(=O)c1ccc(Cl)c(NC(=O)CN(c2ccccc2)S(=O)(=O)c2ccc(OC)cc2)c1	inactive: -7.15%
CC(OC(=O)c1cc2c(s1)CCCCC2)C(=O)NC(N)=O (centres undefined)	inconclusive: 22.9%
Cc1ccc(NC(=O)CS(=O)CC(=O)Nc2cccc(C)c2C)cc1F (centres undefined)	inconclusive: 17.9%
Cc1ccc(S(=O)(=O)c2c(N)n(NC(=O)c3ccccc3C)c3nc4ccccc4nc23)cc1	inconclusive: 17.2%
Cc1cccc[n+]1CC(=O)/C=C1\N(C)c2ccccc2C1(C)C	inconclusive: 17.3%
Cc1ccccc1S(=O)(=O)Nc1nc2ccccc2nc1NCCO	inactive: 5.25%
CCN(CC)CCN1C(=O)/C(=C\c2ccc(Cl)c([N+](=O)[O-])c2)SC1=Nc1ccc(OC)cc1	inconclusive: 26.6%
Cc1ccc(NC(=O)c2ncn(CCCN(CCCn3cnc(C(=O)Nc4ccc(C)c(C)c4)n3)Cc3ccc4[nH]ccc4c3)n2)cc1C	active: 77%
Oc1cccc2cc3cccc(O)c3c(O)c12	inconclusive: 27.1%
CCOC(=O)c1c(C)[nH]c(C)c1C(=O)CSc1nnc(-c2cc(OC)c(OC)c(OC)c2)o1	active: 33%

Compound	activation
Cc1ccc(NC(=O)C(OC(=O)c2ccc(NC(N)=O)cc2)c2ccccc2)cc1Cl (centres undefined)	inconclusive: 17.7%
O=C(CN(Cc1cccs1)C(=O)CN1C(=O)COc2ccccc21)NCc1ccco1	inconclusive: 16.1%
Cc1ccc2nc(NC(=O)c3cc(-c4ccco4)nc4ccccc34)sc2c1	inconclusive: 21%
CC(NCCN(C)C)C1CCC2C3CCc4cc(O)ccc4C3CCC12C (centres undefined)	inconclusive: 17%
COc1ccc(CNC(=O)c2c(N)n(CCCN3CCOCC3)c3nc4ccccc4nc23)cc1	inconclusive: 17.8%
Cc1ccc(C)c(NC(=O)Cn2cc(C(=O)C3CC3)c3ccccc32)c1	active: 72%
CCn1c(COc2ccc3c(c2)OCO3)nnc1SCC(=O)c1ccc(Cl)cc1	inconclusive: 21.7%
Cn1ncc(C(=O)Nc2ccc(OC(F)(F)F)cc2)c1-n1cccc1	inactive: -11.7%
O=C(Nc1c(F)cc(F)cc1Br)c1cc(-c2ccccc2)on1	inconclusive: 20.2%
NC1=NC(c2cn(-c3ccccc3)nc2-c2cccs2)n2c(nc3ccccc32)N1 (centres undefined)	active: 36.8%
COc1ccc(Cl)cc1N1C(=O)CC(Sc2ccccc2N)C1=O (centres undefined)	active: 37.5%
CCC(C)C(NC(=O)c1ccccc1NC(=O)c1ccc(OC)cc1)C(=O)NCc1ccco1 (centres undefined)	inconclusive: 39.8%
ClCCN1C2=NCCCN2c2ccccc21	inactive: 0.768%
NS(=O)(=O)c1ccc(CCNC(=O)c2ccc(-c3ccccc3)cc2)cc1	inconclusive: 16.9%
CCc1ccc2oc(C(=O)NCC(c3ccc(OC)cc3)N3CCCCC3)c(C)c2c1 (centres undefined)	active: 21.2%
NC1=NC(=O)/C(=C/c2c(OS(=O)(=O)c3ccc(Cl)cc3)ccc3ccccc23)S1	inconclusive: 24.5%
COc1cc(-c2cc(C(=O)Nc3cccc(C(C)=O)c3)c3ccccc3n2)cc(OC)c1OC	active: 28.1%
N#C/C(=C/c1ccc(-c2ccc(S(N)(=O)=O)cc2)o1)C(=O)Nc1ccccc1	inconclusive: 16.1%
CN1CCN(c2oc(Cc3cccc4ccccc34)nc2C#N)CC1	inactive: -0.826%
O=C(COc1ccc(Cl)cc1Cl)NN1C(=O)/C(=C\c2ccc(Cl)cc2)SC1=S	inconclusive: 16%
CC(C)C[C@H]1COCCS(=O)(=O)N1Cc1ccc(Cl)c(Cl)c1	inactive: -0.194%

Compound	activation
CCN(CC)CCNC(=O)c1ccc(NC(=O)C2CCN(c3ncnc4sc(C)c(C)c34)CC2)cc1	inconclusive: 18.1%
CCOc1ccc(-n2c(SCC(=O)Nc3nccs3)nc3c(c2=O)SCC3)cc1	inactive: -5.55%
O=C(NNC(=O)c1c(O)c2ccccc2[nH]c1=O)c1ccccc1Br	active: 51.6%
O=C1NC(=Nc2ccccc2)S/C1=C\c1cccnc1	inconclusive: 17.2%
O=C(Nc1ccc(-c2nc3cccnc3s2)cc1)c1ccc(Cl)nc1	inconclusive: 23%
Cc1cccc(C(=O)Nc2cccc(C(=O)N/N=C/c3ccc4c(c3)OCO4)c2)c1	inconclusive: 16.8%
Nc1cc(Cl)nc(N/N=C/c2c(O)ccc3ccccc23)n1	inconclusive: 19.7%
O=C(NC1CCCC1)C(c1ccccc1)N(Cc1ccc(F)cc1)C(=O)c1csnn1 (centres undefined)	inactive: -4.37%
COc1ccc(OCc2nc3c4cc(OC)c(OC)cc4nc(=S)n3[nH]2)cc1	inconclusive: 16.6%
CCCC(c1nnnn1C(C)(C)CC)N(Cc1ccco1)Cc1cc2ccc(OC)cc2[nH]c1=O (centres undefined)	inactive: -8.96%
COc1ccccc1NC(=O)c1ccc(NS(=O)(=O)c2cccc3cccnc23)cc1	inconclusive: 19.1%
c1ccc(CN2CCC(N=C3NN=C(c4ccc5c(c4)OCCO5)CS3)CC2)cc1	active: 18.3%
Cc1ccc2sc(NC(=O)CN3C(=O)c4ccccc4C3=O)nc2c1C	inconclusive: 17.2%
CC(=O)Nc1ccc(C(=O)Nc2cccc(-c3cnc4ccccc4n3)c2)cc1	active: 24.1%
COc1ccc(/C=N/NC(=O)c2ccco2)cc1COc1ccc(F)cc1	active: 74.5%
COc1ccc(-n2c(=O)c3c4c(sc3n(CC(N)=O)c2=O)CCCCC4)cc1	active: 29.7%
O=C(Nc1ccncc1)c1ccc(Cl)c(S(=O)(=O)N2CCc3ccccc32)c1	inconclusive: 16.9%
Cn1c(SCC(=O)c2ccc3c(c2)Cc2ccccc2-3)nnc1-c1ccccc1	inconclusive: 17.3%
CC(C)(c1ccccc1)c1ccc(OCC(O)CNC2CCN(Cc3ccccc3)CC2)cc1 (centres undefined)	inconclusive: 16.7%
Cc1cc2c(=O)n(CC(=O)NCC(=O)Nc3ccc(C(C)C)cc3)cnc2s1	inconclusive: 16.5%
Cc1cc(C(=O)COC(=O)CNC(=O)c2ccc(Cl)c(Cl)c2)c(C)n1Cc1ccco1	inconclusive: 20.5%

Compound	activation
COc1ccccc1-c1cc(-c2ccccc2)nc(SC(C(N)=O)c2ccccc2)c1C#N (centres undefined)	inconclusive: 30.9%
CCN(CC)CCN(C(=O)c1ccc(C(=O)c2ccccc2)cc1)c1nc2ccc(OC)cc2s1	inconclusive: 18.2%
CCOc1ccc(NC(=O)Cn2nnc(-c3ccccc3NC(=O)C3CC3)n2)cc1	active: 59.8%
Nc1nnnn1CC(=O)N/N=C/c1ccc(-c2cccc(Cl)c2)o1	inconclusive: 20.7%
O=C(Nc1ccc2[nH]c(=O)[nH]c2c1)Nc1ccc(F)cc1F	inconclusive: 22.2%
COc1ccc(CNC(=O)c2c(O)c3cc(OC)c(OC)cc3[nH]c2=O)cc1OC	inconclusive: 20.9%
NC(=O)c1ccc(NC(=O)COC(=O)c2cc3ccccc3cc2O)cc1	active: 36.1%
O=C(COC(=O)COc1cccc(Br)c1)Nc1c(Cl)cccc1Cl	inconclusive: 18.4%
Cc1nc2c(sc(=S)n2Cc2ccco2)c(=O)n1CC(=O)Nc1ccc(F)cc1	inconclusive: 17.7%
O=C(c1ccc(OC2CCN(Cc3ccccc3OC(F)F)CC2)cc1)N1CCCC1	inactive: -8.88%
CC[C@H](C)[C@@H]1NC(=O)c2cc([N+](=O)[O-])cc(F)c2NCCCC[C@@H](C(N)=O)NC(=O)[C@H](CCCCN)NC1=O	active: 20.7%
Cc1cc(C)c2c(=O)c3c(oc2c1)C(=O)N(CCO)C3c1cccc(O)c1 (centres undefined)	inconclusive: 17.1%
COc1ccccc1NC(=O)/C(C#N)=C/c1cc([N+](=O)[O-])ccc1N1CCCC1	inactive: -5.08%
Cc1cc(NC(=O)CN2CCc3ccccc3C2)nc2c1c(=O)oc1ccccc12	active: 30.7%
Cc1cccc(NC(=O)CN(C)S(=O)(=O)c2ccc3c(c2)n(C)c(=O)c(=O)n3C)c1C	inactive: 0.529%
O=S(=O)(NCC(c1ccccc1)N1CCNCC1)c1ccc(Cl)cc1 (centres undefined)	inconclusive: 16.2%
Brc1cnc2nc(SC/C=C/c3ccccc3)[nH]c2c1	inconclusive: 18.9%
COc1ccc2cc(-c3nc4ccccc4n3C)c(=O)oc2c1	inconclusive: 20.5%
COc1ccc2cc(C(=O)NCCO)sc(=O)c2c1OC	inactive: -9.57%
O=[N+]([O-])c1ccc2c(c1)/C(=N\O)c1ccccc1-2	active: 27.1%
CCN(CC)S(=O)(=O)c1ccc(-c2nnc(SCC(=O)Nc3ccc(OC)c(OC)c3)o2)cc1	inconclusive: 18.5%
